According to PubChem BioAssay AID1240 (Sanford-Burnham Center for Chemical Genomics, 2008):
The whole screen tested about 50,000 compounds, of which about 800 (1.6%) showed an effect of 50% or more. The list shows a part of the results.

biological target: Bcl-2-like protein 10 (Homo sapiens) (UniProt Q9HD36); experiment: TR3 peptide-Bcl-B binding displacers, biochemical primary FP assay, phenotype converters (AID 1240); settings: GST-Bcl-B / FITC-TR3 peptide fluorescence polarization; stronger effect = higher value; compound at 3.75 mg/L;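 also: 0% = Bcl-B with tracer peptide and DMSO and 100% = tracer peptide lacking Bcl-B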
UniProt Q9HD36, sequence (Q9HD36 whole entry, looked up): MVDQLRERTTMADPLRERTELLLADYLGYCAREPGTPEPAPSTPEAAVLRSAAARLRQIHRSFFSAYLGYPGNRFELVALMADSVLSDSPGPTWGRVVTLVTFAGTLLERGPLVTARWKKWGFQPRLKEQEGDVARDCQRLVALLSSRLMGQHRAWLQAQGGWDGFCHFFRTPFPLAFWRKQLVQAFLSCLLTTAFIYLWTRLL

Structure (SMILES) | displacement [%]
COC(=O)c1c(NC(=O)c2cccc(F)c2)sc(C)c1C | 9.1
Cc1c(NC(=O)CSc2nc3ccccc3n2C)c(=O)n(-c2ccccc2)n1C | 16
O=C(Nc1ccc(S(=O)(=O)Nc2ncccn2)cc1)C1COc2ccccc2O1 (centres undefined) | 7.4
O=C(N/N=C/c1ccc(Br)cc1)C1CC(=O)N(c2ccc(Cl)cc2)C1 (centres undefined) | -8.7
CN(C)Cn1c(O)c(N=NC(=O)c2ccncc2)c2cc(Br)ccc21 | -8.9
Cc1ccc(-c2cc(C(=O)N3CCOCC3)c3ccccc3n2)c(C)c1 | -4.9
COc1ccccc1C(NC(=O)Cc1ccccc1)c1c(OC(C)=O)ccc2ccccc12 (centres undefined) | -13
CCOc1ccc(C(=O)Nc2ncc([N+](=O)[O-])s2)cc1OCC | 14.9
O=C(CN1C(=O)c2ccc([N+](=O)[O-])cc2C1=O)Nc1ccc(O)cc1C(=O)O | 17.5
Cc1cccc(NC(=O)c2ccccc2NC(=O)c2cccs2)c1C | 9.5
COC(=O)C1=C(C)NC2=C(C(=O)c3ccccc32)C1c1ccccc1OCc1ccccc1F (centres undefined) | 11.7
COc1ccccc1NC(=O)C(=O)NCCc1ccccc1 | 14.7
C=CCN1C(=O)/C(=C\c2ccc(-c3ccccc3)o2)SC1=S | 5.6
Cc1ccc(C(=O)Nc2ccc3oc(-c4cccc(Br)c4)nc3c2)cc1[N+](=O)[O-] | 13.7
O=C(N/N=C\c1cc([N+](=O)[O-])ccc1N1CCCC1)c1ccccn1 | -12.4
O=C(COc1ccc(-c2ccccc2)cc1)N/N=C/c1ccncc1 | 5.2
CN1C(=O)NC(=O)/C(=C/c2cccc3ccccc23)C1=O | -2.2
O=C(Nc1cccnc1)c1ccc(-c2cccc(Cl)c2)o1 | -7.1
COc1ccc(/C=C2\CCC/C(=C\c3ccc(OC)c(OC)c3)C2=O)cc1OC | 16.1
Cc1onc(-c2c(Cl)cccc2Cl)c1C(=O)NCC1CCCO1 (centres undefined) | 7.2
O=C(O)C1CC=C(Cl)CC1C(=O)Nc1cncs1 (centres undefined) | 2.3
Ic1ccc(N=Cc2ccc(OC3CSC3)cc2)cc1 | -4.3
Cn1c2ccccc2c2nnc(SCCN3CCOCC3)nc21 | -0.6

Structure (SMILES) | displacement [%]
Cc1c(C(=O)Nc2cc(Cl)cc(Cl)c2)oc2ccccc12 | 13.1
CC(=O)c1ccc(NC(=S)Nc2ccc(F)cc2)cc1 | 5
COc1ccc(/C=C2\C(=O)NC(=S)N(c3cccc(Br)c3)C2=O)c(OC)c1 | -0.7
COc1ccc(NC(=O)C2C3C=CC(O3)C2C(=O)O)c(OC)c1 (centres undefined) | -3.3
C=CCC1(C#N)C(=S)NC2=C(C(=O)CC(C)(C)C2)C1c1ccccc1 (centres undefined) | -9.8
Cc1ccc(C(=O)NCCCn2ccnc2)cc1C | -3.5
CCc1c(C)c2ccc(OCc3ccccc3)c(C)c2oc1=O | -3.1
Cc1cccc2c(=O)oc(-c3ccc(F)cc3)nc12 | 24.6
O=C(Nc1ccccc1[N+](=O)[O-])C1C(c2ccccc2)C1(Cl)Cl (centres undefined) | 5.9
Cc1sc(NC(=O)c2cccc([N+](=O)[O-])c2)c(C(N)=O)c1C | 8.7
COc1cccc(-c2nc(-c3cccc([N+](=O)[O-])c3)no2)c1 | -6.4
C/C(=N\Nc1nc(-c2ccccc2)cs1)c1ccc([N+](=O)[O-])cc1 | 12.6
CC(C)c1ccc(CNC(=O)CSc2nnc(-c3cccc(F)c3)n2-c2ccccc2)cc1 | -18.5
Cc1cccc(C(C2=C(O)CC(C)(C)CC2=O)C2C(=O)CC(C)(C)CC2=O)c1 (centres undefined) | -8.5
O=C1NC(=O)/C(=C\c2ccc(O)c(Br)c2)S1 | -18.2
CC1(C)CC(NC(=S)Nc2ccccc2)CC(C)(C)N1 | 9.6
Oc1ccccc1/C=N\Nc1nc(-c2ccc(Cl)cc2)cs1 | -10.8
O=C(COc1ccccc1)Nc1cccc2ccccc12 | 5.4
O=C1CC(C2CCCO2)C(=O)N1c1cccc(Cl)c1 (centres undefined) | -19
COc1ccccc1C(=O)Nc1nc2ccc([N+](=O)[O-])cc2s1 | -3.7
CC(C)(C)c1cnnn1-c1ccc(C=O)cc1 | -3.2
Cc1ccc(S(=O)(=O)Oc2cccc(/C=C3\SC(=S)NC3=O)c2)cc1 | -87.6
CCOC(=O)c1c(NC(=O)c2cccc(Cl)c2)sc(C(=O)Nc2ccc(OC)cc2OC)c1C | 12.3

Structure (SMILES) | displacement [%]
COc1ccc(OC)c(/C=C2\SC(N3CCC(C)CC3)=NC2=O)c1 | -8.7
COc1cccc(OCc2cc(C3Nc4ccccc4C(=O)N3Cc3ccco3)ccc2OC)c1 (centres undefined) | -23.2
O=C(NCC1CCCO1)c1ccc(Cl)c(Cl)c1 (centres undefined) | -1.4
O=C(c1cc(-c2ccccc2Cl)nc2ccccc12)N1CCN(c2ccc(F)cc2)CC1 | 0.5
COc1cc(C(c2c(C)[nH][nH]c2=O)c2c(C)[nH][nH]c2=O)ccc1OCc1ccccc1Cl | -2.3
O=C(O)c1ccc(-c2ccc(/C=C3\SC(=S)N(c4ccc([N+](=O)[O-])cc4)C3=O)o2)cc1 | -58.9
Cc1nc(C2CC(=O)OC23CCCCC3)cs1 (centres undefined) | -4.4
COc1ccc(/C=N\NC(=O)c2ccc([N+](=O)[O-])cc2)cc1Cl | 5.3
CCc1nnc(NC(=O)c2ccc([N+](=O)[O-])cc2)s1 | 3.6
Cc1occc1C(=O)Nc1ccc2ccccc2c1 | 12
O=C(Nc1ccc(F)c([N+](=O)[O-])c1)c1ccc(-c2cccc(Cl)c2)o1 | 2.8
CCOC(=O)c1c(NC(=O)c2c(-c3c(Cl)cccc3Cl)noc2C)sc2c1CCCC2 | -18.9
O=C1/C(=C\c2cccc3ccccc23)SC(=S)N1CCc1ccccc1 | -2.4
O=C(CSc1nnc(-c2ccco2)o1)c1ccccc1 | -21.9
CS(=O)(=O)N(CC(=O)N1CCOCC1)c1ccc(Oc2ccccc2)cc1 | 3.2
O=C(NCCc1ccccc1)C(=O)Nc1ccc([N+](=O)[O-])cc1 | 7.8
O=C(Nc1ccc(Cl)cc1Cl)C1CC(=O)N(c2ccc(F)cc2)C1 (centres undefined) | -1.9
COc1ccccc1OCCCOc1ccccc1OC | 17.4
CC1=C(C(=O)OCCc2ccccc2)C(c2cccc(Cl)c2Cl)CC(=O)N1 (centres undefined) | -8.4
Cc1cc2nc(-c3ccc(Cl)c(NC(=O)/C=C/c4ccco4)c3)oc2cc1C | -29.9
CN(C)c1ccc(/C=N/NC(=O)c2cc(-c3ccc4ccccc4c3)n[nH]2)cc1 | 5.9
COc1ccc(C2NC(C)(C)Cc3cc(OC)c(OC)cc32)cc1 (centres undefined) | -9.6
Cc1ccc(NC(=O)CN(c2ccc(Cl)cc2)S(C)(=O)=O)cc1 | -12.2
